Reference: PubChem BioAssay AID1508624 (National Center for Advancing Translational Sciences (NCATS), 2021)
The whole screen tested about 48,000 compounds, of which about 120 (0.25%) were called active. About 4% were inconclusive and are not listed. The call rests on the fitted dose curve; in most records, active means well fitted activation curve with a large enough effect; inconclusive means small, poorly fitted or top-dose-only effect, or another doubt; inactive means no such curve, though single readings can be large or run the other way. The list shows a part of the results.

Experiment: Primary qHTS for Identification of Small Molecule Activators of Huntingtin-Antisense Promoter Activity; further: nearly all actives have a fitted effect of over 55% in size
Details: HEK293 HTT-AS promoter firefly luciferase reporter, 24 h; series mostly up to 57.5 µM; activity change, positive = activation: at the top concentration
How it was run: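 Luminescence was read after Dual-Glo reagent and a 10 min room-temperature incubation. Values were normalized to vehicle (0% activity) and zero RLU (-100% activity). Reporter HEK293 cells had been exposed to compounds (up to 57.5 uM final) for 24 h.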

Activity change, positive = activation, inactive:
CCCCCN1C(C(=O)c2ccccc2)=C(NC(=O)c2ccccc2Cl)c2ccccc2S1(=O)=O -2.93%
COc1ccc(CCNC(=O)c2ccc3c(c2)N(Cc2ccc(Cl)cc2)CCS3)c(OC)c1 -24.7%
Cc1ccc(NC(=O)CCC(=O)N2Cc3ccccc3Oc3ncccc32)cc1 -15%
O=C(CCc1ccccc1)NC1CC(=O)N(c2ccccc2)C1 (configuration not stated) -7.97%
COc1cccc(OC)c1C(=O)Nc1ccc2c(c1)N(C(C)=O)CCC2 -18.1%
O=C1CC(c2ccc(Cl)cc2)Sc2nc(-c3ccc(F)cc3)nn21 (configuration not stated) 6.04%
CC(C)(C)c1ccc(C(=O)CCCN2CCC(OC(c3ccccc3)c3ccccc3)CC2)cc1 -7.95%
COc1ccc(-c2cnc(C)o2)cc1S(=O)(=O)Nc1ccc(C)c(N(C)C)c1 -18.9%
CCn1c(=O)cc(SCC(=O)NCCc2ccc(OC)cc2OC)c2ccccc21 -20.6%
COCCCNC(=O)CSc1nc(-c2ccccc2)[nH]c1-c1ccc(C)cc1 -21.6%
CCc1ccc(-n2c(=O)c3c4c(sc3n(CC(=O)NC(C)CC)c2=O)CCCC4)cc1 (configuration not stated) -17%
CCc1cnc2c(c1SCC(=O)Nc1ccc(C)cc1C)c(=O)n(C)c(=O)n2C -7%
CCCn1c(=O)c2sccc2n2c(CCCC(=O)Nc3cccc(CC)c3)nnc12 -6.74%
O=C(O)CCc1ccc(-c2ccccc2)n1CC(=O)Nc1ccccc1C(F)(F)F -8.78%
COc1ccccc1CNC(=O)CCCCn1c(=O)c2ccccc2n(CC(=O)Nc2cc(Cl)ccc2C)c1=O -46.6%
Cc1ccccc1Nc1nn2c(=O)c3ccc(C(=O)N4CCCC(C)C4)cc3nc2s1 (configuration not stated) -7.91%
COc1ccc2c(c1)c1c(c(=O)n(-c3ccccc3C)c(=O)n1CC(=O)Nc1c(C)cccc1C)n2C -6.13%
O=c1c2[nH]c3ccccc3c2nc(SCc2cccc(F)c2)n1-c1ccccc1 -22.1%
COc1cccc(Nc2nc(-c3ccccc3)c3cc(C)ccc3n2)c1 -21.3%
Cc1cccc(CNC(=O)c2ccc(Cn3c(=O)c4cccn4c4cccnc43)cc2)c1 -17.3%
C[C@H](Cn1cnc2c(N)ncnc21)OCP(=O)(O)O -3.54%
O=C(CC1N=C2c3ccccc3N=C(SCc3ccccc3F)N2C1=O)NCc1cccs1 (configuration not stated) 3.82%
CCCCNc1cc(C(=O)O)cc(S(N)(=O)=O)c1Oc1ccccc1
CC1CCCCN1S(=O)(=O)c1ccc2c(c1)oc(=O)n2CC(=O)Nc1ccc(Cl)cc1 (configuration not stated) -29.8%
COc1cc(C2CC(=O)Nc3c2c(=O)nc2c(C)cccn32)cc(OC)c1OC (configuration not stated) -7.41%
CCN(CCCNC(=O)c1cc2cc3ccc(OC)cc3nc2s1)c1ccccc1 -15.8%
Cc1ccc(NC(=O)C(Cc2ccccc2)NS(=O)(=O)c2cccc3nsnc23)c(C)c1 (configuration not stated) -23.3%
CCc1ccc(-c2nn(CC(=O)NC3CCCCC3)c3c2cnc2ccc(OC)cc23)cc1 2.94%
Cc1ccc(Cl)cc1NC(=O)C(=O)NCCc1sc(-c2ccc(F)cc2)nc1C -4.66%
COc1ccc(CC(=O)Nc2sc3c(c2C(=O)Nc2c(C)cccc2C)CCCCC3)cc1 -5.62%
COc1ccc(NC(=O)CSC2=Nc3ccccc3C3=NC(CC(=O)NCc4ccc(F)cc4)C(=O)N23)cc1 (configuration not stated) -3.54%
COc1cccc(NC(=O)/C(C#N)=C\c2cn(Cc3ccc(Cl)cc3)c3ccccc23)c1 19.9% [at 11.5 µM, percent change from vehicle, -100% = no light]
CCCOc1ccc(C(=O)Nc2c(C(=O)c3ccc(C)cc3)oc3ccccc23)cc1 0.379%
COc1ccc(CNC(=O)Cn2c(=O)oc3cc(S(=O)(=O)N4CCCC4)ccc32)cc1 -25.1%
Cc1cccc(S(=O)(=O)c2cn(Cc3ccccc3)c3cc(N4CCCCC4C)c(F)cc3c2=O)c1 (configuration not stated) -15.7%
COc1ccc(-c2oc3c(CC=C(C)C)c(OC4O[C@H](CO)[C@@H](O)[C@H](O)[C@@H]4O)cc(O)c3c(=O)c2OC2O[C@@H](C)[C@H](O)[C@@H](O)[C@@H]2O)cc1 (some centres not stated) -12.7%
CCCCc1ccc(C(=O)N/C(=C\c2ccc(C)cc2)C(=O)NC2CCCCC2)cc1 -10.3%
Cc1cc(C(F)F)n2nc(C(=O)Nc3ccc(F)c(Cl)c3)nc2n1 3.22%
Cc1ccc(Cl)cc1N1CCN(C(=O)c2ccc(C)c(-n3c(C)nc4cccnc43)c2)CC1 -52.2%
CCc1nc2ccc(C(=O)N3CCN(c4ccc(Cl)cc4)CC3)cc2nc1CC 0.281%
O=C(Nc1ccc2nn(-c3ccccc3)nc2c1)c1ccc(-c2cccc(Cl)c2)o1 25.8%
CCOC(=O)[C@H](CCc1ccccc1)N[C@@H](C)C(=O)N(CC(=O)O)C1Cc2ccccc2C1 -5.97%
O=C(CSc1nnc(CNC(=O)c2c(F)cccc2Cl)o1)Nc1cccc(F)c1 -19%
CCOc1ccc(NS(=O)(=O)c2ccc(NC(=O)N3CCCC3)cc2)cc1 -14.5%
O=C(c1cccs1)N1CCCc2cc(NS(=O)(=O)c3ccc(F)cc3)ccc21 0%
COCCCNC(=O)CCc1c(C)nc2cc(-c3ccc(Cl)cc3)nn2c1C -77.7%
COc1ccccc1NC(=O)C1=C(C)Nc2nc(SCc3cc(C)ccc3C)nn2C1c1ccccc1 (configuration not stated) 5.21%
O=C(c1ccc2c(=O)n(CCc3ccccc3)c(=O)[nH]c2c1)N1CCN(c2ccc(Cl)cc2)CC1 -33.8%
COc1cc2nc(Cl)nc(N)c2cc1OC -7.19%
CCn1c(C)c(C)c2cc(C(=O)NCCc3ccc(C)cc3)ccc21 -0.568%
Cc1nn2c(-c3cccc(NC(=O)c4ccc(Cl)cc4)c3)nnc2c2ccccc12 -12.8%
CCN1CCC(N(Cc2ccc3c(c2)OCO3)C(=O)Nc2ccc(Br)c(C)c2)CC1 -19.1%
CCS(=O)(=O)N1CCc2cc(C(=O)Nc3cc(Cl)ccc3C)ccc21 -14%
CCOC(=O)c1c(C)[nH]c(CCC(=O)Nc2ccccc2C(=O)OC)c1C -3.98%
CCn1c(=O)n(CC)c2cc(N3CCCCC3)c(NC(=O)Nc3cc(Cl)ccc3OC)cc21 -33.4%
COc1ccc(-n2c(-c3ccco3)nc3c(cnn3-c3ccc(C)cc3)c2=O)cc1 -35.3%
COc1ccc(CCNC(=O)CCS(=O)(=O)c2ccc3c(c2)oc(=O)n3C)cc1OC 11.4% [at 11.5 µM, percent change from vehicle, -100% = no light]
